The full ranking holds about 110,000 compounds; the median of “z-score” is about -0.1, and the highest 2% start at about 2. The list shows a part of the results. Activity calls are given as the source filed them.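 How the source made its calls: active means z-score in the third read window above 3 or below -3; inactive means the rest.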

Z-score data for 71 compounds are collected here from PubChem BioAssay AID488969 (Vanderbilt High Throughput Screening Facility, 2010).

This assay addresses Metabotropic glutamate receptor 8 (Rattus norvegicus) (UniProt P70579). The experiment in a line: mGluR8 Gi/Go-coupled signaling modulation – cell-based, rat, thallium flux, HTS, primary screen (AID 488969). The note with it: HEK293 rat mGluR8, GIRK (G protein-gated inwardly rectifying potassium channel) thallium flux, FluoZin2; at 10 µM; stronger effect = higher value; submaximal glutamate (EC20) added with thallium.
Chain of UniProt P70579 (P70579 whole entry, looked up): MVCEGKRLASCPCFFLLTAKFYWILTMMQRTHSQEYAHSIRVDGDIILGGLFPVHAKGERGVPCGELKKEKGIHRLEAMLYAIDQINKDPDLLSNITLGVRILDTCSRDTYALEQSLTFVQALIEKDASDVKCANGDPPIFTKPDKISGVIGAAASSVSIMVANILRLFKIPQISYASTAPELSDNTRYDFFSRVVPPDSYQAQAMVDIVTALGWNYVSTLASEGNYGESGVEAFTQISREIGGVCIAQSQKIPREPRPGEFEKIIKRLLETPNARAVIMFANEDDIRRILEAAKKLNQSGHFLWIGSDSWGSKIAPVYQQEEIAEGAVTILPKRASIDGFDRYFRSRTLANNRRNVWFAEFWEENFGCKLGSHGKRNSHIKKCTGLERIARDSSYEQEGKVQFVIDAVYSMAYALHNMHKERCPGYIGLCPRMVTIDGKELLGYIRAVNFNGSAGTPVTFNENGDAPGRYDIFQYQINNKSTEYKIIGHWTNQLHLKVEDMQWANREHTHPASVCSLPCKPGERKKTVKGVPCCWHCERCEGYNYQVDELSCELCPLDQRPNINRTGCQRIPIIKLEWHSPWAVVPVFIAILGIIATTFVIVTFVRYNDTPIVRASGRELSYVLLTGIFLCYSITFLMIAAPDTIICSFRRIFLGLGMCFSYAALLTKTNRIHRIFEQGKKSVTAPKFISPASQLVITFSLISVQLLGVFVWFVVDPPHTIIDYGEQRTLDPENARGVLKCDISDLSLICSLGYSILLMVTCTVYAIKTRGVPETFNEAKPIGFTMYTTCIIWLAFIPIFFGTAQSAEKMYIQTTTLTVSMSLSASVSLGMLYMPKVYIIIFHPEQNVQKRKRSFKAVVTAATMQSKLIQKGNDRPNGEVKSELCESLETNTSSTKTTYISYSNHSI
For `COc1ccccc1/C=c1\sc2nc(-c3ccco3)nn2c1=O`, the z-score was -0.0605.
For `COc1ccccc1CCNC(=O)C1CCCO1` (stereo unspecified) the value was 1.49.
For `C/C(=N\NC(=O)CSCc1ccccc1Cl)c1cccc(NC(=O)c2ccccc2)c1` the value was -0.789; for `CC1(C)Oc2ccc(C(=O)N3CCOCC3)cc2N(CC(=O)N2CCOCC2)C1=O`, -0.908.
The value for `CCOC(=O)Nc1sc(NS(=O)(=O)c2ccccc2)nc1C` was 0.0431.
In the case of `N/C(=N\OC(=O)N1CCOCC1)c1ccc(Cl)cc1`, the z-score is -0.107.
For `O=C(Cn1nnc2ccccc21)C1CC1` the value was -0.287; for `Cc1cccc(S(=O)(=O)NCCC(=O)OCC(=O)Nc2ccc(C#N)cc2)c1`, -0.253.
The value for `Fc1ccc2nc(Nc3nc4c(F)cc(F)cc4s3)sc2c1` was active: 6.16.
For `O=C(Nc1ccn(-c2ccccc2)n1)c1ccccc1Br` the value was -0.0878.
`CC(=O)c1ccc(N(C(=O)Cn2nnc3ccccc32)C(C(=O)NC2CCCCC2)c2cn(C)nc2C)cc1` (stereo unspecified) returned a z-score of -0.0402.
For `O=C(CSc1ncc(C(F)(F)F)cc1Cl)N1CCN(S(=O)(=O)c2ccc3ccccc3c2)CC1` the value was -0.175; for `Cc1ccc(Cl)cc1N1CCN(C(=O)Cn2ccc3ccccc3c2=O)CC1`, 0.1; for `CCN(CC)C(=O)c1ccc2c(c1[N+](=O)[O-])C(=O)c1ccccc1C2=O`, -0.162.
For `c1ccc(Sc2nc(N3CCCCC3)nc(N3CCCCC3)n2)nc1` the value was -1.53; for `COc1ccc(-c2[nH]ncc2/C=N/NC(=O)c2cc(Br)ccc2O)c(OC)c1`, 0.0477; for `Cn1c(-c2ccccc2)cc(=O)c2ccccc21`, -0.596.
The value for `Cc1cc(OCC(=O)O/N=C(\N)c2ccccc2)cc(C)c1Cl` was -0.433; that for `COc1ccccc1CNS(=O)(=O)c1cc(C)ccc1OC` was 0.0628.
`CC(C)CNC(=S)N1CCN(C(c2ccccc2)c2ccccc2)CC1` gave a z-score of -0.358.
Compound `COc1ccc2c(c1)C(=O)N(c1ccccc1)C(=O)C2` came in with a z-score of 0.178.
The value for `c1ccc(-c2nn3c(C4CCCCC4)nnc3s2)nc1` was -1.25; that for `CCN(Cc1cc(=O)n2ccsc2n1)c1cccc2ccccc12` was -0.0371; that for `N#CCC(=O)N/N=C/c1ccc(Sc2nc3ccccc3s2)o1` was 0.0378.
For `COc1ccc2oc(=O)c(C(=O)NCc3ccc4c(c3)OCO4)cc2c1` the value was -0.0693.
`Cc1c(NC(=O)N2CCCCCC2)c(=O)n(-c2ccccc2)n1C` registered a z-score of -0.127.
For `O=C(NCc1cccnc1)NC(C(F)(F)F)C(F)(F)F` the value was 0.422.
The value for `Cc1cccc(NC(=O)C2Cc3ccccc3CN2C(=O)OCc2ccccc2)c1C` (stereo unspecified) was -0.188; that for `COc1ccc(S(=O)(=O)N2CCC(C(=O)NCc3cccc(OC)c3)CC2)cc1` was -0.371; that for `COC(=O)c1ccc(NC(=S)NC(=O)c2c(Cl)cnn2C)cc1` was active: 10.1.
`C/C(=C1/SC(=S)N(CCC(=O)O)C1=O)c1ccc(O)cc1` gave a z-score of -0.179.
Consider `COc1cc(C(=O)Oc2cccc(C=O)c2)cc(OC)c1OC`, for which the z-score was -0.494.
For `COc1ccc2nc(N3C(=O)CC(Cc4ccc(C)cc4)C3=O)sc2c1` (stereo unspecified), the z-score amounted to 1.9.
In the case of `O=C(CN1CCN(S(=O)(=O)c2ccc(Cl)cc2)CC1)Nc1ccc(N2CCOCC2)cc1`, the z-score is -0.0764.
For `Cc1ccc(NC(=O)c2ccc(-c3nn(C)c(=O)c4ccccc34)cc2)cc1` the value was -1.73; for `O=c1c2ccccc2nc(-c2ccco2)n1/N=C/c1ccco1`, -0.704.
For `CCC(C)NC(=O)CSc1nc2ccccc2c(=O)n1Cc1ccc(OC)cc1` (stereo unspecified) the value was active: 3.19; for `Cc1c(C(=O)CN2CCOCC2)[nH]c2ccccc12`, -0.114.
The value for `O=C(COC(=O)CCc1nc2ccccc2n1-c1ccccc1)Nc1cccc(Cl)c1` was 0.245; that for `Cc1ccc(N(C)C(=O)N2CCN(c3ccccn3)CC2)cc1` was -0.0501; that for `Cc1ccc(S(=O)(=O)Cc2ccc(C(=O)N3CCCC3)o2)cc1` was -0.0492.
Turning to `Cc1occc1C(=O)NCc1ccc(C(=O)O)o1`, the z-score was determined as 0.00164.
For `COc1ccc(C(=O)SC2=NCCS2)cc1OC` the value was -0.155; for `Cc1cc(=O)n2nc(N3CCC(C(=O)NC(C)c4ccccc4)CC3)sc2n1` (stereo unspecified), -0.214.
For `Cn1nc(C(=O)Nc2nc3ccccc3[nH]2)c2ccccc2c1=O` the value was -0.125; for `COc1ccc(CC(=O)NCc2nnc(SCCOc3ccccc3)n2C)cc1`, -0.0997.
The value for `CC1=C(OC(=O)c2ccc(Br)cc2)C(C)(C)C(c2ccccc2)OC1=O` (stereo unspecified) was -0.257; that for `COC(=O)c1ccc(COc2ccccc2[N+](=O)[O-])o1` was -0.593.
The compound `CC(C)/C=N/NC(=O)c1cccc(N2CCCC2=O)c1` yielded a z-score of -0.283.
For `Cc1cccc(C)c1N1C(=O)c2ccccc2C1=O`, the z-score came to 0.111.
The value for `CCOC(=O)C(Cc1ccccc1)C(=O)Nc1ccc(NC(=O)C(Cc2ccccc2)C(=O)OCC)cc1` (stereo unspecified) was -0.582; that for `CCN(CC(=O)NCc1cccs1)S(=O)(=O)c1ccc(C(C)C)cc1` was -0.237.
Compound `CCCNC(=S)Nc1ccc(Cl)cc1Cl` came in with a z-score of -0.0325.
Regarding `Cc1cccc(S(=O)(=O)C(C#N)c2nc3ccccc3nc2N2CCCC2)c1` (stereo unspecified), the z-score was -0.423.
For `O=C(NCCO)/C(=C/c1ccc(Br)cc1)NC(=O)c1cccs1` the value was -0.0838; for `Cc1ccc(-n2c(N)c(C(=O)N3CCOCC3)sc2=S)c(C)c1`, 0.158.
The value for `Cc1ccc(NC(=O)CNC(=O)c2cccs2)cc1S(=O)(=O)Nc1ccc(Cl)cc1` was -0.199.
`CCOC(=O)c1oc2cccc(OCC(O)CNC(C)C)c2c1C` (stereo unspecified) showed a z-score of 0.393.
The value for `CC(C)(C)OC(=O)C1C(=O)CC(C)(O)C(C(=O)OC(C)(C)C)C1c1cccnc1` (stereo unspecified) was -0.277; that for `CC(C)Cn1c(NCCN(C)C)nc2c1c(=O)[nH]c(=O)n2C` was -0.0936.
For `CC(=O)c1cc(C)ccc1OC(=O)CCN1C(=O)C2C3c4ccccc4C(c4ccccc43)C2C1=O` (stereo unspecified) the value was -0.138; for `CC(=O)C1=C(c2ccccc2)NC(=O)NC1c1ccccc1OCC(=O)Nc1ccccc1` (stereo unspecified), 0.852; for `Cc1ccc(Cn2ccc(NC(=O)c3cc(-c4ccccc4)on3)n2)cc1`, 1.32.
For `N#Cc1c(SCc2ccc(Cl)cc2)sc(C(=O)c2ccccc2)c1N` the value was 0.132; for `O=C(NCNC(=O)c1ccccc1)c1ccccc1`, -0.373; for `Cc1cc(C(=O)CSc2nn3c(=O)c(C(C)(C)C)nnc3s2)c(C)n1-c1ccc(F)cc1`, -0.983.
With `O=C(COc1ccccc1)Nc1ncccn1`, the z-score stood at 0.0512.
On to `CCN(CC)c1ccc2oc(=O)c(C)nc2c1`, for which the z-score was -0.103.
The value for `CCC1S/C(=N/C(=O)NC2CCCCC2)NC1=O` (stereo unspecified) was 0.106.
The value for `O=C(OCCOCCN=C1NS(=O)(=O)c2ccccc21)c1ccncc1` was 1.61.
`Cc1ccc(NC(=O)CSc2nnc(CN3CCOCC3)n2-c2ccccc2)cc1` yielded a z-score of 0.149.
